About 4,000 (1.1%) of roughly 380,000 compounds were called active. The shares of active, inactive and inconclusive entries below differ from those in the screen. The call rests on the fitted dose curve; in most records, active means well fitted activation curve with a large enough effect; inconclusive means small, poorly fitted or top-dose-only effect; inactive means no such curve, though single readings can be large or run the other way. A potency beside an inconclusive call is a rough fit, not a confirmed value.
Assay: qHTS Assay to Identify Small Molecule Activators of BRCA1 Expression; further: nearly all actives have a fitted effect of over 80% in size
Conditions: MCF7-BRCA1-FFLuc reporter, luminescence, 48 h; activation: at 46.1 µM (top of the series), scaled: vehicle 0%, 10 µM genistein 100% unless noted
Method in brief: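 MCF7-BRCA1-FFLuc cells, 2000/well in phenol-red-free MEM, attached 2 h then treated 48 h at 37 C. Luciferase luminescence read 15 min after reagent; normalized to genistein maximum activation (10microM) and DMSO, concentration-response fitted.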
Potency means the concentration at half of the fitted maximal effect; tags describe the fitted curve by direction and shape.

Compound | Potency | activation
Clc1ccc(CCNc2ncnc3nc[nH]c23)cc1 | inconclusive: 35.5 µM [activator, single point] | 
OC(COCC1COc2ccccc2O1)CN1CCc2ccccc2C1 (stereo not drawn) | inactive | 
COc1cccc(NC(=O)NCCC2=CCCCC2)c1 | active: 5.01 µM | 
Cc1nc(SCC(=O)NCC2CCCO2)c2cc(-c3ccccc3)sc2n1 (stereo not drawn) | inconclusive: 15.8 µM [activator, partial curve, poor fit] | 
Cc1ccc(OCCn2c(Br)nc3c2c(=O)n(C)c(=O)n3C)cc1 | inactive | 
O=C(Nc1ccc(F)c(F)c1)c1ccc2c(c1)OCO2 | inconclusive: 2.24 µM [activator, partial curve, poor fit] | 
Nc1ccccc1C(=O)/C=C/c1ccc2c(c1)OCO2 | inconclusive: 14.1 µM [activator, partial curve, poor fit] | 
O=C(Nc1ccc(NC(=O)c2ccco2)nc1)c1cccc(F)c1 | inconclusive: 1.12 µM [activator, full curve, poor fit] | 
CCOCCc1nn2c(=O)cc(COC(=O)CNC(=O)c3ccc(C(C)(C)C)cc3)nc2s1 | inactive | 
CCOC(=O)c1c(C)[nH]c(C(=O)OCCOc2ccccc2C)c1C | inconclusive: 2.51 µM [activator, full curve, poor fit] | 
CC1(C)CC(=O)/C(=C(\O)c2ccccc2)C(=NCCc2ccccc2)C1 | inactive | 
O=C(NC1CCCCCC1)c1ccc(N2CCCC2=O)cc1 | inconclusive: 2 µM [activator, partial curve, poor fit] | 
N#Cc1ccccc1NC(=O)c1ccc2c(c1)OCCO2 | inconclusive: 11.2 µM [activator, partial curve, poor fit] | 
O=C(Nc1ccc2ccccc2c1)c1ccccc1F | inconclusive: 2.51 µM [activator, full curve, poor fit] | 
C1=C(c2cc3ccccc3cn2)CCCC1 | active: 10 µM | 
COc1ccc(NC(=S)NCc2ccc3c(c2)cc(C)n3C)cc1 | inactive | 
CCOC(=O)C1=C(C)N=C2SC(C(=O)OC)=CC(=O)N2C1c1cccc(OC)c1 (stereo not drawn) | inactive | 
O=C(N/N=C/c1cccc(F)c1)NC1CCCCC1 | inconclusive: 15.8 µM [activator, partial curve, poor fit] | 
CCCCNC(=O)N(C)c1nc2ccccc2s1 | active: 4.47 µM | 
O=[N+]([O-])c1ccc(-c2nc(-c3ccncc3)no2)cc1 | active: 2.51 µM | 
Cc1ccccc1SCC(=O)NCC(c1ccc(F)cc1)N1CCOCC1 (stereo not drawn) | inactive | 
O=C(CC1CCCCC1)NCc1ccccc1 | inconclusive: 10 µM [activator, partial curve, poor fit] | 
COc1ccc(NC(=O)CCOc2ccccc2)cc1 | inconclusive: 15.8 µM [activator, partial curve, poor fit] | 
CC1CC(C)CN(C(=O)c2cc3cc(Br)cc(Br)c3o2)C1 (stereo not drawn) | inconclusive: 11.2 µM [activator, partial curve, poor fit] | 
O=C(Nc1ccc(NC(=O)C2CC2)cc1)c1ccco1 | active: 3.16 µM | 

Compound | Potency | activation
CCCCCOc1ccc(CN2CCOCC2)cc1Cl | active: 8.91 µM | 
COc1cc(/C=C2/C(=O)ON=C2C)ccc1OCc1cccc(F)c1 | inconclusive: 10 µM [activator, partial curve, poor fit] | 
COc1ccc(Cc2nc3ccc(C(=O)N4C[C@@H](C)O[C@@H](C)C4)cc3o2)cc1OC | inconclusive: 10 µM [activator, partial curve, poor fit] | 
Cc1ccc(CNC(=O)CSCc2cccc(F)c2)cc1 | inconclusive: 31.6 µM [activator, single point] | 
Cn1nnc2cc(C(=O)Nc3ccccc3)ccc21 | active: 7.08 µM | 
c1cnc(SCCCOc2ccc3ccccc3c2)nc1 | active: 11.2 µM | 
COCCNC(=O)/C(C#N)=C/c1cc(C)n(-c2ccc(C)cc2)c1C |  | inconclusive: 109% [activator]
CCOC(=O)c1cc(-c2ccccc2C)nn1Cc1cc(CC)no1 | inconclusive: 22.4 µM [activator, single point] | 
CC(=O)Nc1ccc2nc(C3CC3)n(Cc3ccc(Cl)cc3)c(=O)c2c1 | inconclusive: 14.1 µM [activator, partial curve, poor fit] | 
CC(NCc1ccc([N+](=O)[O-])cc1)C1COc2ccccc2O1 (stereo not drawn) | inactive | 
O=C(c1ccccc1)n1ccc(-c2cnc(-c3ccccc3)s2)n1 | inconclusive: 0.562 µM [activator, full curve, poor fit] | 
N#Cc1cc(C#N)c(SCC(=O)N2CC(=O)Nc3ccccc32)nc1N | inactive | 
CC(=O)Nc1ccc(Nc2nc3ccccc3nc2NS(=O)(=O)c2ccc(Cl)c([N+](=O)[O-])c2)cc1 | inactive | 
CCCOc1ccc(-c2cc3onc(-c4ccccc4)c3c(=O)n2C)cc1 | inconclusive: 3.98 µM [activator, full curve, poor fit] | 
CCc1ccc(C(=O)N/N=C(\C)c2ccncc2)s1 | inconclusive: 17.8 µM [activator, single point] | 
CC(/C=N/NC(=O)c1cccs1)=C\c1ccccc1 | inconclusive: 0.562 µM [activator, full curve, poor fit] | 
COCc1nc2oc3ccccc3c(=O)c2cc1C(=O)OC | inconclusive: 10 µM [activator, partial curve, poor fit] | 
Cc1noc(C)c1C(=O)Nc1nc(-c2cccs2)cs1 | inactive | 
COc1cccc(OCc2cc(C(=O)N3CCCC3c3ccccn3)no2)c1 (stereo not drawn) | inconclusive: 12.6 µM [activator, partial curve, poor fit] | 
Cc1ccc(-c2noc(CSc3nc(N)cc(N)n3)n2)cc1 | inconclusive: 2.51 µM [activator, partial curve, poor fit] | 
CCC(=O)c1ccc(OCCSc2ncccn2)cc1 | inconclusive: 1 µM [activator, full curve, poor fit] | 
CCCC(=O)N1CCN(c2nc3ccccc3s2)CC1 | inconclusive: 1 µM [activator, full curve, poor fit] | 
CC(/C=N/Nc1nnc(C)c(=O)[nH]1)=C\c1ccccc1 | active: 10 µM | 
Fc1ccc2[nH]c3c(Cl)ncnc3c2c1 | inactive | 
O=C(NCc1cccs1)c1ccc(N2CCCCC2)nc1 | active: 7.94 µM | 

Compound | Potency | activation
CN(Cc1cnc2nc(N)nc(N)c2n1)c1ccc(C(=O)NC(CCC(=O)O)C(=O)O)cc1C(F)(F)F (stereo not drawn) |  | inconclusive: -88% [activator]
CCOC(=O)CSc1nc2nc(Cl)c(Cl)nc2[nH]1 | inconclusive: 35.5 µM [activator, single point] | 
Cc1ccc(NC(=O)N2CCC(=O)N2)cc1 | inconclusive: 25.1 µM [activator, single point] | 
Cc1cccc(-c2cnn(-c3ccccc3)c2N)c1 | inconclusive: 0.891 µM [activator, full curve, poor fit] | 
Cc1ccn2cc(-c3cccc(NC(=O)C(C)C)c3)nc2c1 | inconclusive: 15.8 µM [activator, partial curve, poor fit] | 
N#Cc1ccccc1N/C=C/C(=O)c1ccc(Cl)cc1 | inconclusive: 0.501 µM [activator, full curve, poor fit] | 
COc1ccc(-n2nc3ccccc3n2)cc1 | inconclusive: 12.6 µM [activator, single point] | 
Cn1ccnc1SCC(=O)c1cccc(Br)c1 | inconclusive: 12.6 µM [activator, partial curve, poor fit] | 
COc1ccccc1NC(=O)Nc1ccc(CC#N)cc1 | inconclusive: 31.6 µM [activator, single point] | 
Cc1cccc(/C=N/Nc2nncc3ccccc23)c1 | inconclusive: 0.631 µM [activator, full curve, poor fit] | 
CCOC(=O)c1cccc(NC(=O)c2ccc(F)cc2F)c1 | inconclusive: 12.6 µM [activator, partial curve, poor fit] | 
Nc1ccc(-c2nc3ccccc3s2)cn1 | inconclusive: 2.51 µM [activator, partial curve, poor fit] | 
O=C(CSc1nc2ccccc2s1)c1cc2ccccc2o1 | inactive | 
CCOc1ccc(-c2csc(NC(=O)c3ccco3)n2)cc1 | inconclusive: 14.1 µM [activator, partial curve, poor fit] | 
CCCCCC(=O)Nc1ccc(-c2cn3cccnc3n2)cc1 | inactive | 
NC(=O)c1ccsc1NC(=O)c1ccc(N2CCCC2=O)cc1 | inconclusive: 0.501 µM [activator, full curve, poor fit] | 
Cc1cccc(OCC(=O)Nc2ccc3c4c(cccc24)CC3)c1C | inactive | 
O=C(Nc1ccc(OC(F)(F)F)cc1)c1cnccn1 | inconclusive: 2.51 µM [activator, full curve, poor fit] | 
COCCNc1ncnc2c1cnn2-c1ccc(Cl)cc1 | inconclusive: 1.58 µM [activator, partial curve, poor fit] | 
COc1ccc(C(=NN)c2ccc(OC)cc2)cc1 | inconclusive: 12.6 µM [activator, partial curve, poor fit] | 
Cc1cccc(-n2c(C)cc(C=C3C(=O)c4ccccc4C3=O)c2C)c1 | inactive | 
COc1c(Cl)cccc1-c1cn2ccccc2n1 | inconclusive: 1 µM [activator, full curve, poor fit] | 
COc1nccnc1NS(=O)(=O)c1ccc(NCc2cc(Br)ccc2O)cc1 | inconclusive: 10 µM [activator, partial curve, poor fit] | 

— PubChem BioAssay AID624202 (National Center for Advancing Translational Sciences (NCATS), 2012)
